Assay results as given in the RNAGym collection of RNA variant scans (doi:10.1073/pnas.2313332121).
This sample is rich in variants without activity.

B1: TPR 5TU (parent)
chain: GGAUCUUCUCGAUCUAACAAAAAAGACAAAUCUGCCACAAAGCUUGAGAGCAUCUUCGGAUGCAGAGGCGGCAGCCUUCGGUGGCGCGAUAGCGCCAACGUUCUCAACUAUGACACGCAAAACGCGUGCUCCGUUGAAUGGAGUUUAUCAUG

Variants of: B1
Assay: polymerase ribozyme fitness, log enrichment relative to wild type (log ratio); higher = more active; in vitro selection for triplet polymerase activity
How it was run: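 Fitness is a logarithmic measure of how a genotype enriched relative to the wild type, with replicate averages weighted by inverse variance. The logarithm uses base 2, and enrichment came from Illumina sequencing of input and output libraries. Those libraries were PCR-built, transcribed mutants of each subunit of a heterodimeric triplet polymerase ribozyme, passed through one triplicate in vitro selection round that included frozen incubation at −7 °C, gel excision of extended constructs and streptavidin-bead capture. Genotypes were kept only if they had ≥10 input reads and ≥1 read per output.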

U44G C76G G92C A113G and U45G G50U G58C A64G G141U cannot be ordered by “polymerase ribozyme fitness (log ratio)” value: at most -4.2 for the first, at most -4.2 for the second.

First: U45G G80C A106G A119U A121U G124C G133U
Second: U45A G84A A115C
The “polymerase ribozyme fitness (log ratio)” value of the first is lower: at most -4.2 for the first, -3.88 for the second.

Compared with U44A C76U G86U A121U, C43A U45A G74C C85G C108U is lower in “polymerase ribozyme fitness (log ratio)” value: -3.86 for the first, at most -4.2 for the second.

U44A C116G U130C and A47C C51U G67C G84A U90A G92A cannot be ordered by “polymerase ribozyme fitness (log ratio)” value: at most -4.2 for the first, at most -4.2 for the second.

U44G C54G C76G C85A and U45G G58C C108A U111A A138U cannot be ordered by “polymerase ribozyme fitness (log ratio)” value: at most -4.2 for the first, at most -4.2 for the second.

C43A U77C C87A G88U A106U U151A and U44A C72G C79A A150C cannot be ordered by “polymerase ribozyme fitness (log ratio)” value: at most -4.2 for the first, at most -4.2 for the second.

G46A G59C C76U C96U C116U and U45A U61A C79U G84U cannot be ordered by “polymerase ribozyme fitness (log ratio)” value: at most -4.2 for the first, at most -4.2 for the second.

C43U G59C C99U G141U and G46C G65A C85A cannot be ordered by “polymerase ribozyme fitness (log ratio)” value: at most -4.2 for the first, at most -4.2 for the second.

C43A C85G A89G A98U G133A and C43U G58A U82A C96A U104G A110C G133A U139A G152U cannot be ordered by “polymerase ribozyme fitness (log ratio)” value: at most -4.2 for the first, at most -4.2 for the second.

C43U A66U C93U C105U G141A and C43U A66U C93U C105U G141C cannot be ordered by “polymerase ribozyme fitness (log ratio)” value: at most -4.2 for the first, at most -4.2 for the second.

C43G C57A G59C C72A C79A A138G U145A and C43G G50C U82A C116A cannot be ordered by “polymerase ribozyme fitness (log ratio)” value: at most -4.2 for the first, at most -4.2 for the second.

U44G G84C C85G A142C and A47C A91C G112C G133C C149U cannot be ordered by “polymerase ribozyme fitness (log ratio)” value: at most -4.2 for the first, at most -4.2 for the second.

U44G U56A C57U C79G C105U and C43U U61A G86U A142G A147U cannot be ordered by “polymerase ribozyme fitness (log ratio)” value: at most -4.2 for the first, at most -4.2 for the second.

G46A U90G G92U A115G C116G A137U G143A and U45G A91C U101G A147C cannot be ordered by “polymerase ribozyme fitness (log ratio)” value: at most -4.2 for the first, at most -4.2 for the second.

U44G U56A A64G A89U A97G A98G U148C and U44G U53A U77C U78A U90G G94C U127C U139A G141A cannot be ordered by “polymerase ribozyme fitness (log ratio)” value: at most -4.2 for the first, at most -4.2 for the second.

C43U A73G and C43A G48U A60G G83C C87U G126U A138C cannot be ordered by “polymerase ribozyme fitness (log ratio)” value: at most -4.2 for the first, at most -4.2 for the second.

First: C43U A115G
Second: U45A U55A C93U
The “polymerase ribozyme fitness (log ratio)” value of the first is lower: at most -4.2 for the first, -3.88 for the second.

U44G A49U U53A A73G C87G G88U C96U G133A A138G G143U and G46A G65C G84U C114G cannot be ordered by “polymerase ribozyme fitness (log ratio)” value: at most -4.2 for the first, at most -4.2 for the second.

C43G G83U G88U G133A and C43U U55A C76A C93G G140C cannot be ordered by “polymerase ribozyme fitness (log ratio)” value: at most -4.2 for the first, at most -4.2 for the second.

U44A U53A C93G C105U C116G U135C and U45A G81A U82G U151A cannot be ordered by “polymerase ribozyme fitness (log ratio)” value: at most -4.2 for the first, at most -4.2 for the second.

Compared with G46A C85A, G42U U61A A64G C85U C87A A89U G133A U134G A150C is lower in “polymerase ribozyme fitness (log ratio)” value: -2.16 for the first, at most -4.2 for the second.

U44A U56A C57G G59C A89G G140A and C43U C54U G71C G126U cannot be ordered by “polymerase ribozyme fitness (log ratio)” value: at most -4.2 for the first, at most -4.2 for the second.

U45C U55A G83C G94C U109A C149U and C43A A52G C72U C76A C85A cannot be ordered by “polymerase ribozyme fitness (log ratio)” value: at most -4.2 for the first, at most -4.2 for the second.

C43A U55C G58C C93G C95U U130C C132A and G46C C72U A73C cannot be ordered by “polymerase ribozyme fitness (log ratio)” value: at most -4.2 for the first, at most -4.2 for the second.

U45A A64U A97G and U45A C125A C149G cannot be ordered by “polymerase ribozyme fitness (log ratio)” value: at most -4.2 for the first, at most -4.2 for the second.

C43U G59A C85A A107C G126C and C43G G92U U104G A119G cannot be ordered by “polymerase ribozyme fitness (log ratio)” value: at most -4.2 for the first, at most -4.2 for the second.

First: U45G C114U
Second: U44C G50A G88C A106U G117U G143U
The “polymerase ribozyme fitness (log ratio)” value of the first is higher: -2.91 for the first, at most -4.2 for the second.

Compared with C43U G59C C95G A97U C116G, U45A G92A U127C G128A U130G is higher in “polymerase ribozyme fitness (log ratio)” value: at most -4.2 for the first, -4.06 for the second.

G46U A97G A110U C118G A120U G124U and G46A C54U C93A U145A cannot be ordered by “polymerase ribozyme fitness (log ratio)” value: at most -4.2 for the first, at most -4.2 for the second.

Compared with U45A G126U, U44A U55G G58U is lower in “polymerase ribozyme fitness (log ratio)” value: -3.51 for the first, at most -4.2 for the second.

U45G C54A C87G A121U C123G and U44G G59U G94C G143U cannot be ordered by “polymerase ribozyme fitness (log ratio)” value: at most -4.2 for the first, at most -4.2 for the second.

G46U G94A A97U and U44G U53A A113C A121G A150U cannot be ordered by “polymerase ribozyme fitness (log ratio)” value: at most -4.2 for the first, at most -4.2 for the second.

C43A G50A C85G and G46C U102C G136U cannot be ordered by “polymerase ribozyme fitness (log ratio)” value: at most -4.2 for the first, at most -4.2 for the second.

Going from U45C G58A A73G A110U A142G to G46C C54U C95U C116U C118G, the “polymerase ribozyme fitness (log ratio)” value rises from at most -4.2 to -2.25.

Compared with A47C A89C C103A G140U, C43G G86U U139C is higher in “polymerase ribozyme fitness (log ratio)” value: at most -4.2 for the first, -4.11 for the second.

C43U A60C G80C C96G G140U G143A and G46C G50U C79A G80C C95U cannot be ordered by “polymerase ribozyme fitness (log ratio)” value: at most -4.2 for the first, at most -4.2 for the second.

U45G U53A G68A C69A A115G and U44A A64U A66C C76A C95U A97C A137U A150G cannot be ordered by “polymerase ribozyme fitness (log ratio)” value: at most -4.2 for the first, at most -4.2 for the second.

C43U C95U and C43U C85A C87U G94C cannot be ordered by “polymerase ribozyme fitness (log ratio)” value: at most -4.2 for the first, at most -4.2 for the second.

U45A G67C G84U C108U A120U and U45G C75U C103G C118G cannot be ordered by “polymerase ribozyme fitness (log ratio)” value: at most -4.2 for the first, at most -4.2 for the second.

C43U G83A G100U and U45A A49U U61A G86C cannot be ordered by “polymerase ribozyme fitness (log ratio)” value: at most -4.2 for the first, at most -4.2 for the second.

U45A A91U C93A and U44A A52G G71C C76G C118G U130G U134A cannot be ordered by “polymerase ribozyme fitness (log ratio)” value: at most -4.2 for the first, at most -4.2 for the second.

Going from C43U A47G C96U C116U to U45G C87U U101C, the “polymerase ribozyme fitness (log ratio)” value rises from at most -4.2 to -3.99.
